Measured values reported in PubChem BioAssay AID463173 (ICCB-Longwood Screening Facility, Harvard Medical School, 2010).
Screen size: about 52,000 compounds; about 4,300 (8.3%) were called active. No stated cut-off is given here; in the data, active means survival mostly below about 52% (no sharp cut-off); inactive means mostly above about 56%. Some of the results follow.

Tested on: DeltatarO mutant
Assay: S. aureus survival, RN4220 and DeltatarO strains – OD600, teichoic acid synthesis inhibitors, primary screen (AID 463173)
Conditions: S. aureus RN4220 wild type/DeltatarO growth, OD600, 18 h, stronger effect = lower value; concentration not given here unless noted

Row | SMILES | survival
1 | Cc1cc(OCC(=O)N2CCN(CCc3ccccn3)CC2)cc(C)c1Cl | inactive: 55%
2 | OCCCCNC1CCCCC1 | inactive: 76%
3 | CCOC(=O)C1=C(C)OC(N)=C(C#N)C12C(=O)N1c3c(cccc32)C(C)CC1(C)C (centres undefined) | inactive: 51%
4 | CCOc1ccc(CN(CCc2ccc3c(c2)OCO3)Cc2cccc(C)c2)cc1 | inactive: 45%
5 | CCN(CC)C(=O)c1ccc(NC(=O)CCn2nc(-c3ccc(Cl)cc3)c3ccccc3c2=O)cc1 | active: 47%
6 | Cc1cccc(C2CC(=O)Oc3c2c(=O)oc2ccccc32)c1 (centres undefined) | inactive: 136%
7 | COC(=O)c1ccc(NC(=O)c2cccn(Cc3ccccc3C)c2=O)cc1 | inactive: 81%
8 | CC(C)C(=O)c1cn(Cc2ccccc2C#N)c2ccccc12 | inactive: 79%
9 | O=C1NC(=S)NC(=O)C1C1CCCCC1 | inactive: 74%
10 | Cc1ccc(OCC(=O)Nc2ccc(Cl)cc2C(=O)c2ccccc2)cc1 | inactive: 67%
11 | O=S1(=O)N(Cc2ccccc2)CCCN1Cc1ccc(F)cc1Cl | inactive: 87%
12 | O=C(Nc1ccc(Br)cc1C(=O)c1ccccc1)c1ccccc1 | active: -1%
13 | CCN(CC)Cc1c[nH]c2ccccc12 | inactive: 90%
14 | CCOC(=O)c1ccc(NC(=O)c2sc3nc4c(cc3c2N)N2CCC4CC2)cc1 | inactive: 68%
15 | CC1CC2(O)c3no[n+]([O-])c3CCC2N1O (centres undefined) | inactive: 85%
16 | C1CNC2NCCNC2N1 (centres undefined) | inactive: 68%
17 | Cc1cc(C)cc(OCC(=O)Nc2ccc(Cl)cc2C(=O)c2ccccc2)c1 | inactive: 82%
18 | COc1ccc(OCC(=O)N2CCN(Cc3cccc(OC)c3OC)CC2)cc1 | inactive: 180%
19 | CCCCCn1c(=O)c(C(=O)Nc2ccccc2S(N)(=O)=O)c(O)c2ccccc21 | active: 0%
20 | Nc1nonc1C1=NOC(c2nonc2N)=NO1 | inactive: 100%
21 | Cc1n[nH]c(C)c1CCN | inactive: 80%
22 | O=C1NC(=O)C(CCc2ccncc2)(CCc2ccncc2)C(=O)N1C1CCCCC1 | inactive: 78%
23 | CCOc1ccc(CN(CCc2ccc3c(c2)OCO3)Cc2cc(OC)ccc2O)cc1 | inactive: 62%
24 | Cc1cc(OCC(=O)N2CCN(CCc3ccncc3)CC2)ccc1Cl | inactive: 49%
25 | Cc1ccc(NC(=O)N(Cc2ccc3c(c2)OCO3)C2CCN(Cc3ccccc3)CC2)cc1C | active: 17%
26 | COc1ccc(-n2c(/C=C\c3ccccc3F)nc3ccccc3c2=O)c(OC)c1 | inactive: 89%
27 | N#Cc1cc2c(nc1SCC(=O)Nc1ccc(C(F)(F)F)cc1)C1CCN2CC1 | active: 8%
28 | CCN1CCN(Cc2ccccc2C#N)CC1 | inactive: 85%
29 | CC(C)c1ccc(OCC(=O)N2CCN(CCc3ccncc3)CC2)cc1 | active: 44%
